According to PubChem BioAssay AID686978 (National Center for Advancing Translational Sciences (NCATS), 2013):
Where “and” joins values, the source holds several entries; their conditions need not be identical. Equal entries are not always repeated. Screen size: about 420,000 compounds; about 64,000 (15%) were called active. Inconclusive means that the source gave no clear call. Such entries were picked first, then a sample of the others. Calls follow the shape of the dose curve; as a rule, active = well fitted inhibition curve with a large enough effect; inconclusive = small, poorly fitted or top-dose-only effect; inactive = flat fitted curve, though single readings scatter. Potencies of inconclusive entries are doubtful fits and often do not repeat.

Test: qHTS for Inhibitors of human tyrosyl-DNA phosphodiesterase 1 (TDP1): qHTS in cells in absence of CPT; also: nearly all actives have a fitted effect of over 55% in size
Conditions: DT40 Tdp1-/- hTDP1 cells, no CPT, ATP luminescence, 48 h; activity change, negative = growth inhibition: at 46.2 µM (top of the series)
Summary of the method: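 DT40 Tdp1-/-;hTDP1 cells, no CPT (DMSO vehicle only), 400 cells/well; compounds pin-transferred; ≥48 hr, 37 °C; CellTiter-Glo 30 min RT dark, luminescence read.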
% is scaled to controls: 0 for no effect and ±100 for the full control effect; potency is read from the fitted curve at half-maximal effect; tags tell the direction and shape of the fitted curve.

Structure (SMILES)	Potency	activity change, negative = growth inhibition
COc1ccc(/C(N)=N/OC(=O)c2ccc(C)c([N+](=O)[O-])c2)cc1	inconclusive: 18.4 µM [inhibitor, single point]	
Cc1ccc(-c2oc3ccccc3c(=O)c2O)cc1	active: 16.4 µM	
C[C@H](CO)N1C[C@H](C)[C@@H](CN(C)S(C)(=O)=O)Oc2ccc(NC(=O)C3CC3)cc2C1=O		inactive: -14.1%
COc1ccc(NC(=S)Nc2ccc(S(=O)(=O)N3CCCCC3)cc2)cc1	inconclusive: 20.6 µM [inhibitor, single point]	
Cc1[nH]n(-c2ccccc2)c(=O)c1N=Nc1ccccc1C(=O)O	inconclusive: 18.4 µM [inhibitor, single point]	
O=C(NCCOc1nc(N2CCCCC2)nc(N2CCCCC2)n1)Nc1ccccc1	active: 23.1 µM	
CC(OC(=O)CCCN=C1NS(=O)(=O)c2ccccc21)C(=O)N(C)c1ccccc1 (centres undefined)	inconclusive: 25.9 µM [inhibitor, single point]	
COC(=O)c1ccccc1NC(=O)Cn1c(=O)n(CCCC(=O)NCc2ccccc2OC)c(=O)c2ccccc21	inconclusive: 3.66 µM [inhibitor, partial curve]	
CCc1ccc(N(CC(=O)NC2CCCC2)C(=O)CCC(=O)Nc2ccccn2)cc1		inactive: -13.4%
CCOc1ccc(NC(=O)Cn2c(=O)n(CCCC(=O)NC3CCN(Cc4ccccc4)CC3)c(=O)c3ccccc32)cc1	inconclusive: 29.1 µM [inhibitor, single point]	
COC(=O)C1=C(C)N(c2ccc(OC)cc2)C(C)=C(C(=O)OC)C1c1ccccc1	active: 20.6 µM	
COc1ccc(-c2cc(=O)oc3c4c(ccc23)OCN(Cc2cccc(OC)c2)C4)cc1	active: 16.4 µM	
CCCN(C)C1CN(Cc2cn(Cc3ccc(OC)cc3)nn2)S(=O)(=O)C1 (centres undefined)		inactive: -13.2%
O=C(NC1=NCCS1)c1ccc(Cl)c(S(=O)(=O)N2CCCCCC2)c1	inconclusive: 9.2 µM [inhibitor, single point]	
O=C1NC(Cc2ccccc2)C(=O)N1Cc1ccccc1 (centres undefined)		inactive: -17.7%
COc1cccc(CN2C(=O)C(C)Oc3ccccc32)c1 (centres undefined)		inactive: -4.11%
CC1(c2ccc([N+](=O)[O-])cc2)NC(=O)N(CC(=O)c2ccc3c(c2)OCO3)C1=O (centres undefined)	inconclusive: 13 µM [inhibitor, single point]	
CC(=O)N1CCCc2cc(S(=O)(=O)N3CCN(c4cccc(C(F)(F)F)c4)CC3)ccc21	inconclusive: 23.1 µM [inhibitor, single point]	
Cc1cc(Nc2ccc(C)c(C)c2)n2ncnc2n1	inconclusive: 6.51 µM [inhibitor, single point]	
O=C1N[C@@H](Cc2ccccc2)COC(=O)[C@@H](Cc2ccc(F)cc2)CC/C=C/C[C@H]1CC(=O)N(CCO)Cc1ccccc1	active: 6.51 µM	
COc1ccc(NC(=O)C(=O)NCCC2CCCCN2S(=O)(=O)c2cccs2)cc1 (centres undefined)	active: 4.61 µM	
COCCn1c(=O)c(-c2ccccc2)nc2cnc(OCc3ccccc3)nc21	inconclusive: 14.6 µM [inhibitor, partial curve, poor fit]	
CNc1nc2c3ccccc3n(C(C)=O)c2s1	inconclusive: 23.1 µM [inhibitor, single point]	

Structure (SMILES)	Potency	activity change, negative = growth inhibition
O=C1SCC(c2ccc(Cl)cc2Cl)=NN1Cc1nnc(-c2ccccc2)o1	inconclusive: 3.66 µM [inhibitor, full curve, poor fit]	
O=C(NNC(=O)C1CC1)c1cc2cc3ccccc3nc2s1	inconclusive: 29.1 µM [inhibitor, single point]	
Cc1cnccc1CNC(=O)C1CCC(=O)N(Cc2ccc(Cl)cc2)C1 (centres undefined)		inactive: 20.3%
CCCn1c(SCC(=O)OCC)nc(C(F)(F)F)cc1=O		inactive: -9.13%
CSc1ccccc1C(=O)NC1CCCN(Cc2ccccc2F)C1 (centres undefined)	inconclusive: 25.9 µM [inhibitor, single point]	
COCCN(C(=O)C(F)(F)F)C(C(=O)NC1CCCCC1)c1ccco1 (centres undefined)	inconclusive: 11.6 µM [inhibitor, partial curve]	
Oc1ccc(N2CCN(c3ncnc4sc(-c5ccccc5)cc34)CC2)cc1	active: 23.1 µM	
O=C1c2ccccc2C(=O)c2c(O)c(O)cc(O)c21	inactive and inconclusive: 25.9 µM [inhibitor, single point]	
O=C(c1cccn2c(=O)c3ccc(Cl)cc3nc12)N1CCN(Cc2ccc3c(c2)OCO3)CC1	active: 18.4 µM	
Cc1ccc(-c2cc(C(F)(F)F)nn2-c2ccc(S(N)(=O)=O)cc2)cc1	inconclusive: 11.9 µM [inhibitor, partial curve, poor fit] and inconclusive: 9.2 µM [inhibitor, partial curve, poor fit] and inconclusive: 29.1 µM [inhibitor, single point]	
CC(=O)N1CCN(Cc2cc(=O)oc3cc(C)cc(C)c23)CC1		inactive: -15.1%
Cc1ccccc1-c1noc(-c2cc(-c3ccc(F)cc3)n[nH]2)n1	active: 23.1 µM	
CCCCCCC[C@@H](C/C=C/CCC(=O)N(C)C/C(=C/Cl)C/C(=C\C(=O)N1C[C@H](O)CC1=O)OC)OC	active: 9.2 µM	
CC1CCCCC1NC(=O)c1cc(Cl)nc2ccccc12 (centres undefined)	inconclusive: 29.1 µM [inhibitor, single point]	
Cc1nn(-c2ccccc2)c(C)c1C(=O)OCC(=O)N1CC(=O)Nc2ccccc21	inconclusive: 29.1 µM [inhibitor, single point]	
O=C(Cn1cnc2ccccc21)Nc1cccc([N+](=O)[O-])c1		inconclusive: -36.5% [inhibitor]
COc1ccccc1N1CCN(C(=O)C(=O)c2cn(CC(=O)N3CCCC3)c3ccccc23)CC1		inactive: 0.218%
O=C(CSc1nnc(COc2ccc(Cl)cc2)o1)N1CCCCC1	inconclusive: 23.1 µM [inhibitor, single point]	
O=C(Cn1c(=O)n(CCCCC(=O)NC2CCCC2)c(=O)c2ccccc21)NCCC1=CCCCC1	inconclusive: 23.1 µM [inhibitor, single point]	
Cc1ccc2oc(-c3ccc(Cl)c(NC(=O)c4ccc(OC(C)C)cc4)c3)nc2c1		inactive: 5.71%
O=C1c2ccccc2C(=O)c2c(Nc3ccc(CCO)cc3)ccc(O)c21	active: 16.4 µM	
COc1ccc(-c2ccc(CN3C(CC(C)C)C(=O)N(Cc4cn(CCC5OCCO5)nn4)CCS3(=O)=O)cc2)cc1OC (centres undefined)	active: 16.4 µM	
CCn1c(NCc2cccs2)nc2ccccc21	inconclusive: 16.4 µM [inhibitor, single point]	

Structure (SMILES)	Potency	activity change, negative = growth inhibition
Cc1cc(C)cc(NC(=O)C2CCN(S(=O)(=O)c3ccc4c(c3)oc(=O)n4C)CC2)c1	inconclusive: 20.6 µM [inhibitor, single point]	
CCCCc1nc2ccccc2n1CC(=O)N(COCC)c1c(C)cccc1CC	inconclusive: 29.1 µM [inhibitor, single point]	
CCO[C@@H]1OC(C(=O)N2CCN(Cc3ccccc3)CC2)=C[C@H](C2CC2)[C@H]1CCCO	inconclusive: 20.6 µM [inhibitor, single point]	
Cc1ccc(Nc2c(-c3ccccn3)nc3ccc(C)cn23)cc1	active: 7.31 µM	
C[C@H]1CCC(=O)N([C@H](COc2ccccc2)Cc2ccccc2)CC1	active: 16.4 µM	
Cc1nc(C(=O)Nc2cccc(Cl)c2Cl)nn1-c1cc(OC(C)C)c(Cl)cc1Cl	inconclusive: 29.1 µM [inhibitor, partial curve, poor fit]	
Cc1ccc(SCC(=O)NCc2ccc(F)cc2)cc1		inactive: -3.63%
CN1CCN(/C=C2\SC(=S)NC2=O)CC1	inconclusive: 4.11 µM [inhibitor, full curve]	
O=S(=O)(c1ccccc1)n1nc(-c2ccccc2)nc1NCc1ccco1		inactive: -27.8%
COc1cc(NC(=S)NCc2cccs2)cc(OC)c1	inconclusive: 29.1 µM [inhibitor, single point]	
CCOC(=O)c1ccc(NC(=O)c2nn(CC)cc2Br)cc1		inactive: -19.4%
COc1ccccc1CN1CC(C(=O)NCC2CCCO2)CC1=O (centres undefined)		inactive: -17.7%
C=C(CCC(=O)c1ccccc1)C(=O)c1ccccc1	active: 2.06 µM	
O=C(CN1C(=O)NC2(CCCCC2)C1=O)Nc1ccccc1N1CCCCC1	inconclusive: 29.1 µM [inhibitor, single point]	
Cc1ccc(N(CC(=O)NC2CCCCCC2)S(=O)(=O)c2c(C)nn(C)c2C)cc1	inconclusive: 23.1 µM [inhibitor, single point]	
COc1ccc(C(=O)CSc2nnc(C3CC3)n2N)cc1	inconclusive: 29.1 µM [inhibitor, single point]	
O=c1c(Cc2ccc(F)cc2)c(O)ccn1CCc1ccccn1		inactive: 9.83%
c1cncc(CNc2cccc(-c3nc4ccccc4[nH]3)c2)c1	inconclusive: 29.1 µM [inhibitor, single point]	
COCCNC(=O)c1cccc2c(-c3cnn(C)c3)coc12		inactive: -20.3%
COc1ccc(C(=O)NC(=S)NNC(=O)c2c(-c3ccccc3)noc2C)cc1OC	inconclusive: 29.1 µM [inhibitor, single point]	
Cc1ccc(S(=O)(=O)N(CC(=O)Nc2ccc3c(c2)OCO3)c2ccc(C)c(Cl)c2)cc1	inconclusive: 16.4 µM [inhibitor, partial curve, poor fit]	
CN(CC(=O)NCCc1ccc(S(N)(=O)=O)cc1)CC(=O)Nc1ccc(Cl)cc1		inactive: -18%
CN(C)C=Nc1ccc([N+](=O)[O-])c2ccccc12	inconclusive: 20.6 µM [inhibitor, single point]	
